No constants are given. Whether binding was seen depends on the method and setting. In cells and extracts the contact can be indirect. Some results given as binding are weak or reduced against the parent protein; the word gives no strength. For some assays here: Tags and fused reporters may be left off the sequences shown. Blank lines part the entries; values can stand above or below the molecule they belong to.
Tests used:
[1] = molecular target: T1, HA-p57-Ct, carboxyterminal domain of p57 (human) (UniProt P49918); assay: co-IP; HA-p57 proteins precipitated with anti-HA antibody coupled to protein G-agarose from extracts of 293 cells co-transfected with FLAG-HDAC1 or FLAG-HDAC3; 4 h, 4°C; IP-buffer 50 mM Tris pH 7.5, 150 mM NaCl, 0.5% NP-40; HDACs detected with anti-FLAG
T1 sequence: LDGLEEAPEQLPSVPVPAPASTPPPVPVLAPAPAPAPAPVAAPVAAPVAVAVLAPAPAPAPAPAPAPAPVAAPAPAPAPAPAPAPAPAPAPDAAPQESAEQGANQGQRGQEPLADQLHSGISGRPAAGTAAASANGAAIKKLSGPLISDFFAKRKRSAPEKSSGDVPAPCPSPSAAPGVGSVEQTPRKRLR

Amino acid sequences for entries named in this document (tags omitted).
UniProt P05412: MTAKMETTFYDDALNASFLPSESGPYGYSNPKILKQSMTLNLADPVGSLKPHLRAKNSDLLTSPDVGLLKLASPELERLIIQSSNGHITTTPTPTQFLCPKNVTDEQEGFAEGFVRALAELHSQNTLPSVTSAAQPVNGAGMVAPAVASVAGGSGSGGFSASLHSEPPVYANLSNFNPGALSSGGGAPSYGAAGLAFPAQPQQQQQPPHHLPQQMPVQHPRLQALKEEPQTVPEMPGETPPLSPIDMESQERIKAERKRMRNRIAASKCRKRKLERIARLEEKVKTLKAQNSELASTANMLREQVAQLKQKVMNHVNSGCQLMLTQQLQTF
UniProt O15379: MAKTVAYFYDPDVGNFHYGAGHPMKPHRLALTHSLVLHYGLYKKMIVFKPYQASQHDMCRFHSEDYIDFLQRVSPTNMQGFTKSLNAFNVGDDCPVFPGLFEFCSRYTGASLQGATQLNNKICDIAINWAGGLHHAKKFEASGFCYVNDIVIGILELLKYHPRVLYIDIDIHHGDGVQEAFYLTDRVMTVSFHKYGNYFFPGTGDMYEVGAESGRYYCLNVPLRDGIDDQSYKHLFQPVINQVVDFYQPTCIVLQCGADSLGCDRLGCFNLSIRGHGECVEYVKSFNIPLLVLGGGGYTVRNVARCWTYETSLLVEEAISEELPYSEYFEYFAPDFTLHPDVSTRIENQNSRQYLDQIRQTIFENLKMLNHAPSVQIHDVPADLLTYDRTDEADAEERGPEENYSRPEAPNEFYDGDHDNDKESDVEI
UniProt Q13547: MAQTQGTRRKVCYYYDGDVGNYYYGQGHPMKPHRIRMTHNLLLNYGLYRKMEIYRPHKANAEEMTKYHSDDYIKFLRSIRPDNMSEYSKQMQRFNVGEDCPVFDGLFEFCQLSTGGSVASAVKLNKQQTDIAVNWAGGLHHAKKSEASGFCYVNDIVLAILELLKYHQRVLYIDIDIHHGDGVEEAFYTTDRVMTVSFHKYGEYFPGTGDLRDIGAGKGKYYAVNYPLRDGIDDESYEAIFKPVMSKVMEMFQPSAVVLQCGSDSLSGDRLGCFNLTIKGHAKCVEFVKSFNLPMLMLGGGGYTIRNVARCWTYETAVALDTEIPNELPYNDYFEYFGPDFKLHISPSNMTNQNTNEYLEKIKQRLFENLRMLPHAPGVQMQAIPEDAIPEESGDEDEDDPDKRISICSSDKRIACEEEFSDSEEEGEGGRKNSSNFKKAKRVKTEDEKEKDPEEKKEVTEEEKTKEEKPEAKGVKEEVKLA

[2] = molecular target: T2, HA-p57-Nt, aminoterminal domain of p57 (human) (UniProt P49918); assay: as above
T2 sequence: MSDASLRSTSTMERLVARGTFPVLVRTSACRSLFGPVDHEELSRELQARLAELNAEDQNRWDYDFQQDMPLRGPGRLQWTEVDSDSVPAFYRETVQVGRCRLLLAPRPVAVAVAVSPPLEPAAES

[3] = molecular target: T3, HA-tagged p57 (p57Kip2) (human) (UniProt P49918); assay: as above
T3 sequence: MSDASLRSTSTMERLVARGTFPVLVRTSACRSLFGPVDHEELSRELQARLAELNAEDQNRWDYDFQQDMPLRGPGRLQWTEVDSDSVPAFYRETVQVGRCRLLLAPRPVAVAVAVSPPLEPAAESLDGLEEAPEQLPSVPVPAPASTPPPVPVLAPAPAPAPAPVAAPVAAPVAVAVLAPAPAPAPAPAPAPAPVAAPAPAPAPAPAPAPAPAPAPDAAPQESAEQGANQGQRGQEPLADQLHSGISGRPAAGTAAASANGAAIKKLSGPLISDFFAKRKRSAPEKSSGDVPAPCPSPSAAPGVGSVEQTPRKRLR

[4] = molecular target: T4, endogenous p57 of HRT-18 cells (human (endogenous in HRT-18)) (UniProt P49918); assay: co-IP; endogenous p57 precipitated from HRT-18 extract with rabbit polyclonal p57 antibody, over night at 4°C; lysis buffer 50 mM Hepes pH 7,5, 150 mM NaCl, 1% Triton X-100, 1 mM EDTA, 1 mM EGTA, 10% Glycerol; c-Jun detected by immunoblot; rabbit IgG IP as control
T4 sequence: T3 sequence

HA-tagged c-Jun (human) = HA-tagged c-Jun (human) (UniProt P05412); assay: co-IP; HA-Jun precipitated with anti-HA mouse monoclonal antibody coupled to protein G-agarose from extracts of transfected cells; 4 h, 4°C; IP-buffer 50 mM Tris pH 7.5, 150 mM NaCl, 0.5% NP-40; FLAG-p57 detected by immunoblot
[5] = molecular target: FLAG-tagged c-Jun (human) (UniProt P05412); assay: co-IP; FLAG-Jun precipitated with anti-FLAG mouse monoclonal antibody coupled to protein G-agarose from extracts of transfected 293 cells; 4 h, 4°C; IP-buffer 50 mM Tris pH 7.5, 150 mM NaCl, 0.5% NP-40; HA-p57 proteins detected by immunoblot

Molecule: FLAG-HDAC3 (human histone deacetylase 3) (from UniProt O15379 1-428) (enzyme)
binding [1]: no binding
binding [2]: binds
binding [3]: binds

Molecule: endogenous c-Jun of HRT-18 cells (from UniProt P05412 1-331)
binding [4]: binds

B2: HA-tagged p57 (p57Kip2) (protein, UniProt P49918 1-316)
chain: T3 sequence
binding [5]: binds

The remaining lines, values ahead:

binding [1]: no binding
binding [2]: binds
binding [3]: binds
Molecule: FLAG-HDAC1 (human histone deacetylase 1) (from UniProt Q13547 1-482) (enzyme)

binding (HA-tagged c-Jun (human)): binds
B1: FLAG-tagged p57 (p57Kip2) (protein, UniProt P49918 1-316)
chain: T3 sequence

binding [5]: binds
B3: HA-p57-Nt, aminoterminal domain of p57 (domain or fragment, UniProt P49918 1-125)
chain: T2 sequence

binding [5]: no binding
B4: HA-p57-Ct, carboxyterminal domain of p57 (domain or fragment, UniProt P49918 126-316)
chain: T1 sequence
